According to PubChem BioAssay AID1347073 (National Center for Advancing Translational Sciences (NCATS), 2019):
The whole screen tested about 45,000 compounds, of which about 200 (0.44%) were called active. Not shown: some 7% with an inconclusive outcome. Calls follow the shape of the dose curve; as a rule, active = well fitted activation curve with a large enough effect; inconclusive = small, poorly fitted or top-dose-only effect; inactive = no such curve, though single readings can be large or run the other way. Some of the results follow. Peptide text beside a SMILES is read from it. * marks the point of attachment. Cbz = O=C(OCc1ccccc1)*

Assay: qHTS of TDP-43 Inhibitors: NCGC Sytravon Library Screen; also: 0% is about no effect; nearly all actives have a fitted effect of over 55% in size
Details: yeast TDP-43 toxicity rescue, BacTiter-Glo growth, 24 h; series mostly up to 46.1 µM; growth rescue (activation): at the top concentration
Outline: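 TDP-43-expressing yeast, pregrown in raffinose, seeded at OD600 0.02 in galactose medium with compound for 24 hr at 30 deg C. Growth read by BacTiter-Glo luminescence, so rescue of toxicity appears as activation.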

SMILES | growth rescue (activation)
CCn1cc(C(=O)NCCCN2CCCC(C)C2)c(=O)c2cc(S(=O)(=O)N3CCc4ccccc4C3)ccc21 (stereo not drawn) | inactive: 11.9%
CCOC(=O)c1ccc(N/C=C/C(=O)C(C)(C)C)cc1 | inactive: -5.26%
CCOc1ccc(Cl)cc1S(=O)(=O)N1CCC(C(=O)NCC2CCCO2)CC1 (stereo not drawn) | inactive: -22.7%
COCCN1Cc2cccc(C(=O)NCCCN3CCCC3=O)c2C1=O | inactive: 16%
C[C@H](NC(=O)c1ccco1)C(=O)NNC(=O)c1ccc(F)cc1 | inactive: -7.56%
CC(=O)Nc1ccc(NC(=O)CC(C)n2ccnc2)cc1 (stereo not drawn) | inactive: -8.64%
CC(C)CCNC(=O)c1ccc2c(SCC(=O)O)c3c(nc2c1)CCC3 | inactive: 5.96%
O=C(O)c1cccc(N2C(=O)CSC2=S)c1 | inactive: 28.7%
C=CCNC(=S)N/N=C/c1ccc(-c2ccc(Br)cc2)o1 | inactive: 15.8%
Cc1ccc(S(=O)(=O)N(CC(=O)NN=C2CCN(C)CC2)c2ccc(F)cc2)cc1 | inactive: 3.33%
C=CCOc1ccc(C2NC(=S)NC3=C2CCc2ccccc23)cc1 (stereo not drawn) | inactive: 31.1%
O=C(Nc1ncc(Cc2ccc(C(F)(F)F)cc2)s1)c1ccc(-c2cccc([N+](=O)[O-])c2)o1 | inactive: 26.6%
COc1ccc(S(=O)(=O)NCc2cccnc2)cc1C(=O)NC1CCCCC1 | inactive: 9.83%
COC(=O)Nc1ccc2c(c1)N(C(=O)CCN1CCN3CCCC3C1)c1ccccc1CC2 (stereo not drawn) | inactive: -7.33%
O=C(NNC(=S)NCc1ccco1)c1cccs1 | inactive: 18%
O=C(CSc1nc(O)cc(=O)[nH]1)N1c2ccccc2CCc2ccccc21 | inactive: 28.6%
Cc1cc(=O)c(C(=O)O)nn1-c1cccc(C(F)(F)F)c1 | inactive: 7.54%
O=C(NCCc1nc2ccccc2[nH]1)c1ccc(Cl)c([N+](=O)[O-])c1 | inactive: 5.23%
N#CCCN(CCC#N)C(=O)C1c2ccccc2Oc2ccccc21 | inactive: 0.341%
CC(C)N=C1NN=C(c2ccc(Cl)c(Cl)c2)CS1 | inactive: 10.3%
O=C(O)/C=C/c1ccc(S(=O)(=O)N2CCCCCC2)cc1 | inactive: 27.6%
O=C(O)CCC(NC(=O)C1CCCN1C(=O)OCc1ccccc1)C(=O)O (stereo not drawn) (Cbz-Pro-Glu-OH; configuration not given here) | inactive: 11.6%
O=C(c1cccc(NS(=O)(=O)c2cccc([N+](=O)[O-])c2)c1)N1CCOCC1 | inactive: 10.5%

SMILES | growth rescue (activation)
CC(C)(C)NC(=O)CSc1nc2ccccc2c(=O)[nH]1 | inactive: 2.38%
COc1ccc(CNS(=O)(=O)NCc2ccc(C)cc2)cc1OC | inactive: 13.2%
O=C(CN1CCN(C(=O)C2CCCO2)CC1)Nc1cc(C(F)(F)F)ccc1Cl (stereo not drawn) | inactive: 20%
Cn1c(CCNS(=O)(=O)c2ccccc2)nnc1SCc1cccnc1 | inactive: -13.6%
CCOC(=O)CN(C)Cc1cn(C)nc1-c1ccc(Oc2ccccc2)cc1 | inactive: 3.51%
CSc1ccc(/C=N/NC(=O)CN2CCN(Cc3ccc(Cl)cc3)CC2)cc1 | inactive: 10.1%
O=C(NCCCO)C(=O)c1c(-c2ccccc2)cc2ccccn12 | inactive: 3.82%
CCOC(=O)N1CCC(N(CCN(C)C)C(=S)Nc2cc(C)ccc2C)CC1 | inactive: 3.73%
Cc1ccc(CN(c2ccc(C(=O)N3CCOCC3)cc2)S(C)(=O)=O)cc1 | inactive: -16.9%
CCc1ccc2oc(C(=O)NCCc3ccc(S(N)(=O)=O)cc3)cc(=O)c2c1 | inactive: 0.144%
CN(C)S(=O)(=O)c1ccc(NC(=O)CSc2nnc(-c3ccco3)n2N)cc1 | inactive: -13.2%
Cc1nc2ccccc2nc1OCc1ccccc1 | inactive: 23.8%
Clc1ccc(-c2nc3c4cnn(-c5ccccc5Br)c4ncn3n2)c(Cl)c1 | inactive: 18.6%
NC(CCc1ccccc1)c1csc(Nc2ccc(C(F)(F)F)cn2)n1 (stereo not drawn) | inactive: 0.31%
CC(C)C(C)NC(=O)CN1C(=O)NC2(CCc3ccccc32)C1=O (stereo not drawn) | inactive: -8.39%
Cc1ccc(C2=Nc3ccccc3N=C(C(Cl)Cl)C2)cc1 | inactive: -8.2%
CCCC(c1nnnn1CS(=O)(=O)c1ccc(C)cc1)N1CCN(CC)CC1 (stereo not drawn) | inactive: -21.9%
COc1ccc(CN2C[C@@H](CO)O[C@@H](n3cnc4c(NC5CC5)ncnc43)C2)cc1 | inactive: 17%
O=C1C2C3C=CC(C4CC34)C2C(=O)N1/N=C/c1cccs1 (stereo not drawn) | inactive: 2.57%
N#Cc1ccc(COC(=O)CSc2nnc(N)s2)cc1 | inactive: 10.2%
CC(CCc1ccccc1)NC(=O)CNc1cccc([N+](=O)[O-])c1 (stereo not drawn) | inactive: 17.6%
N#Cc1c(SCC(=O)Nc2cccc(C(F)(F)F)c2)sc2c(O)cc(=O)[nH]c12 | inactive: 4.23%
COc1ccc(CNC(=O)C2CCC(CNc3c(N4CCOCC4)c(=O)c3=O)CC2)cc1 (stereo not drawn) | inactive: 3.56%

SMILES | growth rescue (activation)
O=C(N/N=C/c1cccnc1)c1ccc(CN2c3cccc4cccc(c34)S2(=O)=O)cc1 | inactive: 1.74%
CC(/C=C\c1cccnc1)=C/C(=O)O | inactive: -3.1%
Cc1cc(C)nc(NC(N)=NCCc2c[nH]c3ccccc23)n1 | inactive: 3.66%
COc1ccc(-c2cc(C(=O)N3CCCC3)no2)cc1 | inactive: -0.244%
O=C(COC(=O)c1cccnc1)Nc1cccc2ccccc12 | inactive: 6.85%
COC(=O)c1ccc(C)c(-n2c(C)cc(C=O)c2C)c1 | inactive: 25.1%
CCOc1ccc(NC(=O)c2ccco2)c([N+](=O)[O-])c1 | inactive: 30.6%
COc1ccccc1N1C(C)=CC(=C(C#N)c2nc3ccccc3s2)C=C1C | inactive: 9.32%
CC(C)c1ccc(NC(=O)C2Cc3c(-c4cccc(C(N)=O)c4)ccnc3O2)cc1 (stereo not drawn) | inactive: 7.22%
CCc1ccc(/C(C)=N/NC(=O)CNC(=O)/C=C/c2ccco2)cc1 | inactive: 26.2%
O=C(Nc1cccc(C(F)(F)F)c1)c1cc(-c2ccco2)on1 | inactive: 2.53%
CC(C)(C)NC(=O)CSc1nncn1NCc1c(Cl)cccc1Cl | inactive: -2.17%
O=C(CNc1cccc([N+](=O)[O-])c1)NCCCc1ccccc1 | inactive: -1.69%
COc1ccccc1N(CC(=O)Nc1cc(S(=O)(=O)N(C)C)ccc1C)S(=O)(=O)c1cccs1 | inactive: 15.2%
O=C(CN1CCN(Cc2ccccc2)CC1)Nc1ccc(S(=O)(=O)N2CCOCC2)cc1 | inactive: -0.58%
COCCCN(C(=S)Nc1cccc(Cl)c1)C(C)c1ccncc1 (stereo not drawn) | inactive: 27.4%
O=C(COC(=O)c1ccc([N+](=O)[O-])s1)NC(=O)NCc1ccccc1 | inactive: 14.6%
C[n+]1cc[nH]c1SCC(=O)c1ccc(Cl)cc1 | inactive: 15.8%
CCN(C(=O)c1cc2cccc(OC)c2oc1=O)C1CCCCC1 | inactive: 28.9%
COc1ccc(C(=O)NNC(=O)C(=O)Nc2cccc3ccccc23)cc1 | inactive: 11.1%
O=C(c1ccc2c(c1)OCO2)N1CCN(c2ncccn2)CC1 | inactive: -4.18%
COc1ccc(N(CC(=O)NCc2ccco2)C(=O)CCC(=O)Nc2nccs2)cc1 | inactive: 5.68%
